Publication PMC4650712, “Conversion of cell-survival activity of Akt into apoptotic death of cancer cells by two mutations on the BIM BH3 domain” (Cell Death & Disease, 2015)

Tests used:
[1] = molecular target: BCL-2; assay: ITC binding to BCL-2; details: 25 °C, 20 mM Tris-HCl (pH 7.5), 350 mM NaCl, peptide (0.2 mM) titrated into BCL-2 (20 μM), three independent experiments
Source text: To test if phosphorylated BH3BIM(I155R/E158S) binds to the BCL-2 family proteins more tightly than its unphosphorylated version, we produced recombinant BCL-2 and BCL-XL proteins, and also prepared two 21-mer synthetic peptides: BH3BIM(I155R/E158S) and phosphorylated BH3BIM(I155R/E158S) at Ser158, which is referred to as p-BH3BIM(I155R/E158S) (Figure 1). […] Thus, phosphorylated Ser158 appeared to replace the role of Glu158 in the BH3 sequence.
Figure 3 Phosphorylation-dependent binding of BH3BIM(I155R/E158S) to BCL-2 and BCL-XL. (a–d) The ITC analyses were carried out by titrating the indicated peptides (0.2 mM) into BCL-2 or BCL-XL (20 μM). The KD values were deduced from curve fittings of the integrated heat per mole of added ligand (insets). (e) Competition assay. The BH3BIM(I155R/E158S) peptide was incubated with cell lysate containing overexpressed Akt (wild type (WT), constitutively active form (CA) or kinase-dead (KD) mutant) and HA-tagged BCL-2 protein. […] After washing, bound HA-tagged BCL-2 was detected by immunoblotting. […]
All measurements were carried out at 25 °C on a microcalorimetry system iTC200 (GE Healthcare). […] Dilution enthalpies were measured in separate experiments (titrant into buffer) and subtracted from the enthalpies of the binding between the protein and the titrant. Data were analyzed using the Origin software (OriginLab Corp., Northampton, MA, USA). […]

[2] = test system: BCL-2 / GST-PUMA; assay: Competition assay: displacement of HA-tagged BCL-2 from GST-PUMA; assay type: binding, mouse BCL-2; details: pulldown, immunoblot
Procedure: Figure 3 Phosphorylation-dependent binding of BH3BIM(I155R/E158S) to BCL-2 and BCL-XL. (a–d) The ITC analyses were carried out by titrating the indicated peptides (0.2 mM) into BCL-2 or BCL-XL (20 μM). The KD values were deduced from curve fittings of the integrated heat per mole of added ligand (insets). (e) Competition assay. The BH3BIM(I155R/E158S) peptide was incubated with cell lysate containing overexpressed Akt (wild type (WT), constitutively active form (CA) or kinase-dead (KD) mutant) and HA-tagged BCL-2 protein. This mixture was incubated with GST-PUMA bound to glutathione agarose resin. After washing, bound HA-tagged BCL-2 was detected by immunoblotting. Detection of p-S9-GSK3β was to monitor the Akt activity. Input: used cell lysates and GST-PUMA. EV: empty vector transfection.
We indirectly tested this possibility by employing PUMA and BCL-2, whose intermolecular interaction is tighter than that between BAX (or BAK) and BCL-2,[15] to obviate complications in using full-length BAX or BAK. Recombinant human PUMA fused to GST (GST-PUMA) was produced, and HEK293 cells were prepared to transiently overexpress BCL-2 and one of the three forms of Akt: wild-type, constitutively active or kinase-dead form. Each cell lysate was incubated with BH3BIM(I155R/E158S) and GST-PUMA. […]

[3] = test system: BAX or PUMA; assay: Expression of BAX or PUMA in PC3 cells; assay type: cell-based; details: 24 h
Procedure: For efficient cytoplasmic delivery of the proteins, we applied a novel technique of using gold nanoparticles (AuNPs) coated with anti-GST DNA aptamers.[37] To apply this technique, GST-fused the BH3BIM peptides were produced and incubated with AuNPs coated with anti-GST DNA aptamer. […] We confirmed that GST-BH3BIM-coated AuNPs were effectively incorporated into the cells (Figure 7b). To confirm the cytotoxic effect of each protein, we performed the trypan blue dye exclusion assay and counted viable cells.
Figure S4. […] PC3 cells were incubated with indicated materials for 24 hr.

Molecule	Kd [1] [nM]	effect on BCL-2/GST-PUMA binding ([2]; HEK293 lysate with kinase-dead Akt)	effect on BCL-2/GST-PUMA binding ([2]; HEK293 lysate with wild-type or constitutively active Akt)	expression of proapoptotic proteins BAX or PUMA [3]
CC[C@H](C)[C@H](NC(=O)[C@H](Cc1c[nH]c2ccccc12)NC(=O)[C@@H](NC(=O)[C@H](CCC(=O)O)NC(C)=O)[C@@H](C)CC)C(=O)N[C@@H](C)C(=O)N[C@@H](CCC(N)=O)C(=O)N[C@@H](CCC(=O)O)C(=O)N[C@@H](CC(C)C)C(=O)N[C@@H](CCCNC(=N)N)C(=O)N[C@@H](CCCNC(=N)N)C(=O)N[C@@H](CCCNC(=N)N)C(=O)NCC(=O)N[C@@H](CC(=O)O)C(=O)N[C@@H](COP(=O)(O)O)C(=O)N[C@@H](Cc1ccccc1)C(=O)N[C@@H](CC(N)=O)C(=O)N[C@@H](C)C(=O)N[C@@H](Cc1ccc(O)cc1)C(=O)N[C@@H](Cc1ccc(O)cc1)C(=O)N[C@@H](C)C(=O)N[C@@H](CCCNC(=N)N)C(N)=O [p-BH3BIM(I155R/E158S)] (Ac-EIWIAQELRRRGD[pS]FNAYYAR-NH2)	8.55			
Ac-EIWIAQELRRRGDSFNAYYAR-NH2 [BH3BIM(I155R/E158S)]	192	did not interfere with the binding interaction	abolished the binding between BCL-2 and GST-PUMA	did not alter the expression of proapoptotic proteins such as BAX or PUMA

Square brackets hold non-standard residues; d marks the D form. Peptide text beside a SMILES is read from it. pS = N[C@@H](COP(=O)(O)O)C(=O)O
